B1: GPR68, Q15743 (parent)
chain: MGNITADNSSMSCTIDHTIHQTLAPVVYVTVLVVGFPANCLSLYFGYLQIKARNELGVYLCNLTVADLFYICSLPFWLQYVLQHDNWSHGDLSCQVCGILLYENIYISVGFLCCISVDRYLAVAHPFRFHQFRTLKAAVGVSVVIWAKELLTSIYFLMHEEVIEDENQHRVCFEHYPIQAWQRAINYYRFLVGFLFPICLLLASYQGILRAVRRSHGTQKSRKDQIQRLVLSTVVIFLACFLPYHVLLLVRSVWEASCDFAKGVFNAYHFSLLLTSFNCVADPVLYCFVSETTHRDLARLRGACLAFLTCSRTGRAREAYPLGAPEASGKSGAQGEEPELLTKLHPAFQTPNSPGSGGFPTGRLA

Data set [1] covers variants of B1. Briefly: cAMP reporter score (Enrich2 score, wild type = 0); higher = more signal; HEK293T, FACS bins.
The variants in data set [2] derive from B1. Briefly: surface expression score (Enrich2 score, wild type = 0); higher = more signal; HEK293T, FACS bins.

In the GPR68 mutational scans of Howard et al. (2025) one finds cAMP reporter score and surface expression score data, which are given here for 32 variants.

Scores whose standard error is large were omitted. The source holds two more conditions with little spread; they are left out. Read del as a deletion of the residues named and ins as an insertion between two positions. For some of these results: The concentration of ogerin is not given here.

As for G358L, the cAMP reporter score in data set [1] (pH 5.5) was found to be 1.66; in data set [1] (pH 6) it was 0.428; in data set [1] (pH 6, modulator: ogerin), 1.25; in data set [1] (pH 6.5, modulator: ogerin), 1.07. The surface expression score in data set [2] amounted to 1.02.

For G358R, the cAMP reporter score is 0.336 in data set [1] (pH 5.5); -0.749 in data set [1] (pH 6); 0.755 in data set [1] (pH 6, modulator: ogerin); 0.493 in data set [1] (pH 6.5, modulator: ogerin). Moreover, in data set [2], the surface expression score came out at 0.625.

G358N: the cAMP reporter score in data set [1] (pH 5.5) is -0.046; in data set [1] (pH 6), 0.767; in data set [1] (pH 6, modulator: ogerin), 0.309; in data set [1] (pH 6.5, modulator: ogerin) it was 0.644. Besides, the surface expression score in data set [2] stood at 0.504.

Take G358A: the cAMP reporter score in data set [1] (pH 5.5) was 0.905; in data set [1] (pH 6.5, modulator: ogerin) it was 1.54. Besides, the surface expression score in data set [2] came out at 1.69.

Regarding G358I, the cAMP reporter score in data set [1] (pH 5.5) was 0.244; in data set [1] (pH 6), -0.777; in data set [1] (pH 6, modulator: ogerin) it was 0.609; in data set [1] (pH 6.5, modulator: ogerin) it was 0.931. Besides, the surface expression score in data set [2] was -0.519.

Consider P346del, for which the cAMP reporter score in data set [1] (pH 5.5) was 3.15; in data set [1] (pH 6) it was 1.67; in data set [1] (pH 6, modulator: ogerin), -0.298; in data set [1] (pH 6.5, modulator: ogerin), 3.15. The surface expression score in data set [2] worked out at 1.1.

With S353_P354insG, the cAMP reporter score in data set [1] (pH 5.5) is 0.116; in data set [1] (pH 6), 0.152; in data set [1] (pH 6, modulator: ogerin), -0.184; in data set [1] (pH 6.5, modulator: ogerin), -0.447. Further, the surface expression score in data set [2] came to 0.019.

For the variant L341_T342del, the cAMP reporter score in data set [1] (pH 5.5) amounted to 0.95; in data set [1] (pH 6, modulator: ogerin) it was 0.94; in data set [1] (pH 6.5, modulator: ogerin), 1.37. In addition, the surface expression score in data set [2] was 1.17.

Consider S331_G332insGSG, for which the cAMP reporter score in data set [1] (pH 5.5) is 2.04; in data set [1] (pH 6) it was 1.84; in data set [1] (pH 6, modulator: ogerin), 1.74; in data set [1] (pH 6.5, modulator: ogerin), 2.51. Moreover, in data set [2], the surface expression score was determined as 1.42.

For the variant P351_N352del, the cAMP reporter score in data set [1] (pH 5.5) was 0.479; in data set [1] (pH 6), -0.17; in data set [1] (pH 6, modulator: ogerin), 0.064; in data set [1] (pH 6.5, modulator: ogerin), 0.488. Moreover, the surface expression score in data set [2] came out at 0.321.

In the case of N352_S353insGS, the cAMP reporter score in data set [1] (pH 5.5) was 1.1; in data set [1] (pH 6), 0.24; in data set [1] (pH 6, modulator: ogerin), 0.983; in data set [1] (pH 6.5, modulator: ogerin) it was 1.27. Further, the surface expression score in data set [2] was found to be 0.94.

In the case of P354L, the cAMP reporter score in data set [1] (pH 5.5) amounted to 1.27; in data set [1] (pH 6, modulator: ogerin), 1.41; in data set [1] (pH 6.5, modulator: ogerin), 1.38. Further, the surface expression score in data set [2] worked out at 1.65.

Turning to P354F, the cAMP reporter score in data set [1] (pH 5.5) came out at 0.547; in data set [1] (pH 6), 1.46; in data set [1] (pH 6, modulator: ogerin), 1.36.

On to P354G, for which the cAMP reporter score in data set [1] (pH 5.5) was 0.226; in data set [1] (pH 6), -0.528; in data set [1] (pH 6, modulator: ogerin), 0.264; in data set [1] (pH 6.5, modulator: ogerin), -0.351. The surface expression score in data set [2] is 0.011.

For the variant P354W, the cAMP reporter score is -0.383 in data set [1] (pH 5.5); 0.26 in data set [1] (pH 6); 0.164 in data set [1] (pH 6, modulator: ogerin); -0.629 in data set [1] (pH 6.5, modulator: ogerin). Also, in data set [2], the surface expression score is -0.739.

In the case of P354A, the cAMP reporter score was 2.32 in data set [1] (pH 5.5); 1.3 in data set [1] (pH 6, modulator: ogerin); 2.77 in data set [1] (pH 6.5, modulator: ogerin). In addition, in data set [2], the surface expression score is 1.05.

For the variant P354R, the cAMP reporter score in data set [1] (pH 5.5) is 0.794; in data set [1] (pH 6) it was -0.498; in data set [1] (pH 6, modulator: ogerin), 0.52; in data set [1] (pH 6.5, modulator: ogerin), -0.811. Besides, the surface expression score in data set [2] was 0.463.

Turning to P354C, the cAMP reporter score is 0.057 in data set [1] (pH 5.5); 0.193 in data set [1] (pH 6, modulator: ogerin); 0.315 in data set [1] (pH 6.5, modulator: ogerin). Besides, in data set [2], the surface expression score is -0.045.

In the case of P354K, the cAMP reporter score was 0.983 in data set [1] (pH 5.5); -0.615 in data set [1] (pH 6); 0.888 in data set [1] (pH 6, modulator: ogerin); 0.436 in data set [1] (pH 6.5, modulator: ogerin). Also, the surface expression score in data set [2] was 0.285.

With P354S, the cAMP reporter score in data set [1] (pH 5.5) was 1.75; in data set [1] (pH 6), 0.153; in data set [1] (pH 6, modulator: ogerin) it was 2.62.

As for P354H, the cAMP reporter score stood at 0.56 in data set [1] (pH 5.5); 0.032 in data set [1] (pH 6); 0.564 in data set [1] (pH 6, modulator: ogerin); 0.073 in data set [1] (pH 6.5, modulator: ogerin). In addition, the surface expression score in data set [2] came to 0.364.

For P354M, the cAMP reporter score in data set [1] (pH 5.5) turned out to be 1.36; in data set [1] (pH 6), 0.656; in data set [1] (pH 6, modulator: ogerin), 1.75; in data set [1] (pH 6.5, modulator: ogerin), 1.47. Besides, in data set [2], the surface expression score was found to be 0.956.

As for P354D, the cAMP reporter score was -0.312 in data set [1] (pH 5.5); -0.669 in data set [1] (pH 6); -0.062 in data set [1] (pH 6, modulator: ogerin); 0.672 in data set [1] (pH 6.5, modulator: ogerin). In addition, the surface expression score in data set [2] stood at 0.061.

Take P354Q: the cAMP reporter score in data set [1] (pH 5.5) was found to be 0.479; in data set [1] (pH 6), 0.22; in data set [1] (pH 6, modulator: ogerin), 0.354; in data set [1] (pH 6.5, modulator: ogerin), 0.682. Further, the surface expression score in data set [2] came out at 0.675.

Turning to P354E, the cAMP reporter score in data set [1] (pH 5.5) was 1.82; in data set [1] (pH 6), 1; in data set [1] (pH 6, modulator: ogerin) it was 1; in data set [1] (pH 6.5, modulator: ogerin), 0.77. For the same variant, in data set [2], the surface expression score turned out to be 1.48.

On to P354N, for which the cAMP reporter score was 0.786 in data set [1] (pH 5.5); -0.34 in data set [1] (pH 6); 0.572 in data set [1] (pH 6, modulator: ogerin); 0.314 in data set [1] (pH 6.5, modulator: ogerin). Further, in data set [2], the surface expression score is 0.039.

Turning to P354I, the cAMP reporter score was determined as 0.402 in data set [1] (pH 5.5); 0.863 in data set [1] (pH 6); 0.343 in data set [1] (pH 6, modulator: ogerin); 0.512 in data set [1] (pH 6.5, modulator: ogerin). Moreover, the surface expression score in data set [2] is -0.628.

Consider P354V, for which the cAMP reporter score is 0.392 in data set [1] (pH 5.5); -0.308 in data set [1] (pH 6); -0.024 in data set [1] (pH 6, modulator: ogerin); 0.133 in data set [1] (pH 6.5, modulator: ogerin). The surface expression score in data set [2] is -0.083.

As to P354T, the cAMP reporter score worked out at 1.34 in data set [1] (pH 5.5); 1.09 in data set [1] (pH 6); 2.57 in data set [1] (pH 6, modulator: ogerin); 2.26 in data set [1] (pH 6.5, modulator: ogerin). Besides, in data set [2], the surface expression score was found to be 1.44.

On to F348_Q349insG, for which the cAMP reporter score in data set [1] (pH 5.5) was determined as 0.738; in data set [1] (pH 6) it was 0.694. For the same variant, in data set [2], the surface expression score was determined as 0.509.

As to S353_G355del, the cAMP reporter score in data set [1] (pH 5.5) is 0.288; in data set [1] (pH 6) it was -0.758; in data set [1] (pH 6, modulator: ogerin), 0.288; in data set [1] (pH 6.5, modulator: ogerin), 0.332. Moreover, the surface expression score in data set [2] is -0.088.

Turning to G335_E336insGS, the cAMP reporter score in data set [1] (pH 5.5) stood at 0.209; in data set [1] (pH 6), 0.86; in data set [1] (pH 6, modulator: ogerin), 0.826; in data set [1] (pH 6.5, modulator: ogerin), 2.43. Further, the surface expression score in data set [2] was determined as 0.336.
